Screen size: about 310,000 compounds; about 2,200 (0.71%) showed an effect of 50% or more. The effect is printed as a negative number. The list shows a part of the results.
Target: human ether-à-go-go-related gene (hERG) potassium channel (human, UniProt Q12809)
Experiment: primary screen, population patch clamp on CHO cells stably expressing hERG

human ether-à-go-go-related gene (hERG) potassium channel, sequence (Q12809 whole entry, looked up): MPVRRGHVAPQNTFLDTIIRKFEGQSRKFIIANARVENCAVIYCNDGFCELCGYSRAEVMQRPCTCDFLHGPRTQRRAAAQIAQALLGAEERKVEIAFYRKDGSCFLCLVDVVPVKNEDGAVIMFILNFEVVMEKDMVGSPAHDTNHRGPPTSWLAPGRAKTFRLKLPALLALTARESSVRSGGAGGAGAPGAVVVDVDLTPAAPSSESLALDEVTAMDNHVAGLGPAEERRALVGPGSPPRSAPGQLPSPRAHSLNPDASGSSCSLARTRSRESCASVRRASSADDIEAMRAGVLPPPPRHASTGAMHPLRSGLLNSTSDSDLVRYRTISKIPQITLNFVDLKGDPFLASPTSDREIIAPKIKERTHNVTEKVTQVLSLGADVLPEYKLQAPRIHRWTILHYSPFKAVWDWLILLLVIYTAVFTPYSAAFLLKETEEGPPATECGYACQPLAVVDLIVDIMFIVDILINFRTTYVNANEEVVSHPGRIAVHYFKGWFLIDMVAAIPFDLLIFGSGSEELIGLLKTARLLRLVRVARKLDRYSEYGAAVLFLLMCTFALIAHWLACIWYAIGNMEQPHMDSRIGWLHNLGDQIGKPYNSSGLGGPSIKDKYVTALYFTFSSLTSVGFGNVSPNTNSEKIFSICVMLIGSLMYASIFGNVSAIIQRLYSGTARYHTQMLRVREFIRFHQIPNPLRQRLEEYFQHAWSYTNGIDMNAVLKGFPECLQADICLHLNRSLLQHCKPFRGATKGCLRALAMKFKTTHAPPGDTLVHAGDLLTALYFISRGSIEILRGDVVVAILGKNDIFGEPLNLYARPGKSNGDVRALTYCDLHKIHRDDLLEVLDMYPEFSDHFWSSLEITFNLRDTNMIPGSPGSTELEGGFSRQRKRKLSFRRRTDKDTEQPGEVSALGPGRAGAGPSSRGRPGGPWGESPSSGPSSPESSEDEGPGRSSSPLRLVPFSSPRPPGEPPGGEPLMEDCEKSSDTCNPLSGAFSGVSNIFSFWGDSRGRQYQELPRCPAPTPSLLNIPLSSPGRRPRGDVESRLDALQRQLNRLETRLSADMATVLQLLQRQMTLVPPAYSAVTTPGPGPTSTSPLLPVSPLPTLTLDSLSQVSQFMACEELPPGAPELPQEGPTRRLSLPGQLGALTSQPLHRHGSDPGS

Structure (SMILES) | hERG current change (%, negative = inhibition) at 1uM [%]
Cc1ccc(-n2c3c(c(O)c(-c4ccccc4)c2=O)C(=O)CC(C)(C)C3)cc1 | -0.0154
COc1ccc(NC(=S)N2CCC(NC(=O)c3ccccc3C)CC2)cc1 | 15.7
CC(=O)Nc1ccc(S(=O)(=O)N2CCN(c3nnnn3-c3ccccc3)CC2)cc1 | 10.9
CCCCCSc1nnc(C)c(=O)[nH]1 | 14
Cc1ccc(Nc2cc(C)nc(N3CCOCC3)n2)cc1 | 11.1
OCCCc1nc2ccccc2n1CCc1ccccc1 | -3.76
CCn1cc(C(=O)N2CCCC2)c(=O)c2cc(S(=O)(=O)N(C)C)ccc21 | 10.6
Cc1ccc(S(=O)(=O)c2nnn3c2nc(N2CCN(c4ccccn4)CC2)c2ccccc23)cc1 | 11.8
O=S(=O)([N-]c1nc2ccccc2nc1-[n+]1ccc(Cc2ccccc2)cc1)c1ccc(Br)s1 | 3.01
COc1cccc(/C=C2/SC(=S)N(CCC(=O)N3CCOCC3)C2=O)c1 | 5
c1ccc(CCNCC2COc3ccccc3O2)cc1 (centres unmarked) | 9.1
CCN(C(=O)CSc1nc2cc(Cl)ccc2c(=O)n1Cc1ccco1)C1CCS(=O)(=O)C1 (centres unmarked) | -70.2
Cc1ccnc(NS(=O)(=O)c2ccc(NC(=O)c3ccc(N4C(=O)CCC4=O)cc3)cc2)n1 | 0.0228
COc1ccccc1NC(=O)C(C)Sc1nc(-c2ccccc2)cn1N (centres unmarked) | -10.9
CC(C)NC(=O)C1CCN(C(=O)c2ccc(-c3ccccc3)cc2)CC1 | 11.7
Cc1cccc(C)c1OC(=O)CCN1C(=O)C2C3C=CC(C4CC34)C2C1=O (centres unmarked) | 6.58
O=C(CCCN1CCC(n2c(=O)[nH]c3ccccc32)CC1)c1ccc(F)cc1 | -80.8
NC(=O)CSc1nnc(NC(=O)C23CC4CC(CC(C4)C2)C3)s1 | -0.271
COC(=O)CSc1nnc(CNC(=O)c2cc(OC)cc(OC)c2)n1-c1ccc(F)cc1 | 2.01
CCOC(=O)c1cccc(COC(=O)c2cccc(-c3nnc(-c4ccccc4)o3)c2)c1 | 7.84
COc1cc2c(cc1OC)CN(C(C)C(=O)N1CCc3ccccc31)CC2 (centres unmarked) | 5.72
CC(NC(=O)c1ccco1)c1nc(-c2ccc(Cl)cc2)no1 (centres unmarked) | -5.75
CCN(CC)C(=O)c1cn(CC)c(=O)c2cc(OC)c(OC)cc12 | 3.86
CCN(CC)C(=O)C1CCCN(C(=O)Nc2ccc(NC(=O)N3CCCC(C(=O)N(CC)CC)C3)cc2)C1 (centres unmarked) | -6.44
COc1ccc(CCNS(=O)(=O)c2ccc(OC)cc2)cc1 | -7.01
CN(C)c1nc(N)ncc1-c1ccc(Oc2ccccc2)cc1 | 9.59
CCCc1ccc(-c2csc(NC(=O)Cc3cccs3)n2)cc1 | 6.69

Structure (SMILES) | hERG current change (%, negative = inhibition) at 1uM [%]
CCc1ccc(-c2cnc3ccccc3n2)cc1NC(=O)CNC(=O)c1ccccc1 | 18.4
CCc1cc(=O)oc2c(CNCc3ccccc3F)c(O)c(Cl)cc12.Cl | 3.41
COc1ccc(OC)c(CNC(=O)CCSCc2ccc(F)cc2Cl)c1 | 9.26
Nc1c2c(=O)oc(-c3ccccc3)cc2nn1-c1ccccc1 | 8.15
N#C/C(=C\c1ccc(-c2ccccc2Cl)o1)C(=O)Nc1nc2ccccc2s1 | 17.6
O=C(Cn1c(=O)oc2cccnc21)Nc1ccccc1Oc1ccc(Cl)cc1Cl | 13.7
CCC(CC)C(=O)N1c2ccc(F)cc2CCC1C (centres unmarked) | 5.64
O=C(Cc1cccs1)NC(c1ccccc1)c1ccccc1 | 4.34
CC(=O)Nc1c(C(=O)N2CCN(c3ccccn3)CC2)cnn1-c1ccc(C)cc1 | 8.88
Cc1cccc(N(C(=O)CCC(=O)Nc2cccnc2)C(C(=O)NC2CCCC2)c2ccncc2)c1 (centres unmarked) | 10.8
CCCCn1c(N)c(N(CCOC)C(=O)Cn2c(=O)oc3ccccc32)c(=O)[nH]c1=O | 13.5
Cc1cccc2nc(CSc3nc4ccc([N+](=O)[O-])cc4[nH]3)cn12 | 0.208
Cc1ccc(-c2nc(-c3ccccc3)no2)c(Cl)c1 | 9.08
Cc1ccc(S(=O)(=O)N2CCOCC2)cc1C(=O)OCC(=O)c1ccc[nH]1 | 10.9
Cc1ccc(/C(N)=N/OC(=O)Oc2ccccc2)cc1 | 8.45
Cc1cc(N2CCOCC2)nc2ccc(NC(=O)CCC(=O)N3CCC(C)CC3)cc12 | 5.16
CCOC(=O)c1sc(NC(=O)c2cc3n(n2)C(C(F)(F)F)CC(c2ccccc2)N3)c(C(=O)OCC)c1C (centres unmarked) | 15.8
COc1cccc(C(=O)Nc2cc3c(cc2C(C)=O)OCCO3)c1 | -4.99
CCN(c1ccccc1)S(=O)(=O)c1ccc(Oc2ccc(-n3ccnc3)cc2)nc1 | -15.9
Cc1ccc(S(=O)(=O)N2C(=O)CCC2C(=O)NCc2ccco2)cc1 (centres unmarked) | 12.8
CCCC(O)(c1ccc(Cl)cc1)C(CN1CCOCC1)c1ccc(Cl)cc1.Cl (centres unmarked) | 6.52
c1coc(CNc2nc3ccccc3n2CCN2CCOCC2)c1 | -18.2
COCCNC(=O)c1cccc(OC2CCN(Cc3ccc(C(C)C)cc3)CC2)c1 | -11.3
COc1ccc(CNc2cc(C)ccc2C)c(OC)c1OC | -2.17
CN(C)Cc1c(C(=O)N/N=C/c2ccc(OCc3ccc(F)cc3)cc2)nnn1-c1nonc1N | 11.5
CCOC(=O)[C@H]1[C@H]2COc3ccc(Br)cc3[C@@H]2N2C(=O)c3ccc(C)cc3NC(=O)[C@@]12C | 12.3

— publication PMC4336329 (PLoS ONE, 2015)
